The values that follow come from patent US8962670B2, “Anti-cancer agents” (UWM Research Foundation, Inc., priority 2011, dated 2015).

One series deals with 49 mer DNA duplex 292. Put plainly: DNA ICL formation with/without H2O2, denaturing PAGE (Example 15). The note with it: for ICL formation: in the presence of H2O2.
The nature of another series: Absorbance at 350 nm. It counts as physicochemical. The conditions noted are these: 0.023 mM. Here is the method:
DNA duplexes 6-13 were photo-irradiated at 350 nm using a Rayonet Photochemical Chamber Reactor (Model RPR-100). A wavelength of 350 nm was chosen because near-UV light (>300 nm) is not/slightly absorbed by most biological molecules and is compatible with living cells. Both compounds have absorbance at 350 nm (A=0.08 for 0.023 mM 53a and A=0.19 for 0.023 mM 53b. Furthermore, the nitroimidazole derivatives can be excited by 350 nm to form a radical anion transition state.

Consider `CC1(C)OB(c2ccc(-c3ccc(B4OC(C)(C)C(C)(C)O4)c(C[N+](C)(C)C)c3)cc2C[N+](C)(C)C)OC1(C)C` [Compound 47, 3,3′-Di(trimethyl)-[4,4′-di(4,4,5,5-tetramethyl-[1,3,2]dioxaborolan-2-yl)-biphenyl]-ammonium bromide], for which the cross-linking yield in the series on 49 mer DNA duplex 292 (100 μM compound + 50 μM H2O2) and in the series on 49 mer DNA duplex 292 (2 mM compound + 1 mM H2O2) was 0% in each case. In addition, the ICL formation result in the series with 49 mer DNA duplex 292 is “no ICL was observed”.

As to `CC1(C)OB(c2cc(C[N+](C)(C)C)c(B3OC(C)(C)C(C)(C)O3)cc2C[N+](C)(C)C)OC1(C)C` [Compound 48, 1,4-Di-trimethyl-[2,5-di(4′,4′,5′,5′-tetramethyl-[1′,3′,2′]dioxaborolan-2′-yl)-benzyl]-ammonium bromide], the ICL formation entry with 49 mer DNA duplex 292 is “efficiently induce the ICL formation”. As for `O=c1[nH]c(=O)n([C@H]2C[C@H](O)[C@@H](CO)O2)cc1Cn1cnc([N+](=O)[O-])c1` [Compound 53a, 5-(4-nitro-1H-imidazol-1-yl)methyl-2′-deoxythymidine], in the series “Absorbance at 350 nm”, the “absorbance at 350 nm (A)” value is on record as 0.08.
